The campaign covered roughly 50,000 compounds. About 800 (1.6%) showed an effect of 50% or more. Some of the results follow.

In PubChem BioAssay AID1240 (Sanford-Burnham Center for Chemical Genomics, 2008) one finds displacement data, which are given here for 108 molecules.

The assay deals with Bcl-2-like protein 10 (Homo sapiens) (UniProt Q9HD36). Put plainly: TR3 peptide-Bcl-B binding displacers, biochemical primary FP assay, phenotype converters (AID 1240).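 Further: 0% = Bcl-B with tracer peptide and DMSO and 100% = tracer peptide lacking Bcl-B.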 Particulars: GST-Bcl-B / FITC-TR3 peptide fluorescence polarization; stronger effect = higher value; compound at 3.75 mg/L.
Sequence of UniProt Q9HD36 (Q9HD36 whole entry, looked up): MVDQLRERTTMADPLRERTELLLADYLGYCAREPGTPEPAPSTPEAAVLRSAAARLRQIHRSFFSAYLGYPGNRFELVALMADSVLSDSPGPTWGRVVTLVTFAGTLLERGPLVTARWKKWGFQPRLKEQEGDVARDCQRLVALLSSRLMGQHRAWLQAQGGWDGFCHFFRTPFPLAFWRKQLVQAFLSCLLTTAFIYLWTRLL
For the molecule `CCOC(=O)C(Nc1cc2oc3ccccc3c2cc1OC)c1ccccc1` (stereo not drawn), the displacement was -2.3%. The result for `Cc1ccccc1NC(=O)c1cc2ccccc2c(/C=N/n2cnnc2)c1O` reads 109%. For `O=C(O)/C=C\C(=O)Nc1cccc(-c2cn3ccccc3n2)c1`, the displacement is 8.8%. Consider `COc1cc(C(=O)Nc2nc(C(C)(C)C)cs2)cc(OC)c1OC`, for which the displacement was determined as 4.5%. Under `CC1CN(CN2C(=O)C(=O)c3ccccc32)CC(C)O1` (stereo not drawn) stands -2.4%. As to `CCOc1ccc2c(C)c(CC)c(=O)oc2c1`, the displacement came to 11.8%.

In the case of `CCOC(=O)c1c(-c2ccc(Cl)cc2)csc1NC(=O)c1ccco1`, the displacement stood at 10.8%. On to `Cc1ccc(N2C(=O)C3CC=C(c4ccccc4)CC3C2=O)cc1` (stereo not drawn), for which the displacement was -0.7%. On to `CCn1c(O)c(N=NC(=O)c2cccc([N+](=O)[O-])c2)c2ccccc21`, for which the displacement is -7.4%. As to `CCCC(=O)C1=C(O)C(C(=O)OC)C(C)(C)CC1=NC(C)CC` (stereo not drawn), the displacement is 0%. For the molecule `CC1=C(C(=O)OCCc2ccccc2)C(c2ccccc2OCc2ccccc2)CC(=O)N1` (stereo not drawn), the displacement was -10.4%. Consider `COc1ccc(C(=O)CN2C3=NCCN3c3ccccc32)cc1OC`, for which the displacement was -7.6%. Consider `C(=N\N1CCN(c2ccccc2)CC1)/c1ccc(OCc2ccccc2)cc1`, for which the displacement was -1.7%. `Cc1[nH]n(-c2ccc([N+](=O)[O-])cc2)c(=O)c1C=NCCN1CCN(C(=O)c2cccc(F)c2)CC1`: the displacement was -7.5%.

Take `O=C(CSc1nc2ccc([N+](=O)[O-])cc2s1)NCc1ccco1`: the displacement was -4.6%.

On to `Cc1ccc(/C=C2\SC(=Nc3cccc(Cl)c3C)NC2=O)cc1[N+](=O)[O-]`, for which the displacement was -44.9%. Consider `Cc1ccc(O)c2nc(/C=C/c3ccccc3N)ccc12`, for which the displacement is 2.3%.

In the case of `Cc1cc(C)c(C(N)=O)c(Nc2ccccc2)n1`, the displacement worked out at 0.3%.

Consider `CCOc1cc(/C=N/NC(=O)COc2ccccc2C)cc(I)c1O`, for which the displacement was 8%. In the case of `CCOC(=O)c1ccccc1NS(=O)(=O)c1ccccc1`, the displacement is -9.2%. Take `Cc1cc(C)cc(NC(=O)c2ccncc2)c1`: the displacement was determined as 0.4%. With `CCOc1ccc(-c2cc(C)n3nc(C(=O)Nc4ccccc4C(=O)OC)cc3n2)cc1`, the displacement was -1.8%.

For the molecule `CC1=C(C(=O)OCCOc2ccccc2)C(c2ccc(Cl)c([N+](=O)[O-])c2)C2=C(CC(C)(C)CC2=O)N1` (stereo not drawn), the displacement was -2.6%. As for `CC(C)(C)c1ccc(C(=O)Nc2cccc(Cl)c2)cc1`, the displacement is -12.3%.

On to `O=C(NCc1ccccc1Cl)c1ccc(I)cc1`, for which the displacement was 9.3%. As for `CC(C)(C)c1ccc(OCC(=O)Nc2ccccc2[N+](=O)[O-])cc1`, the displacement was found to be 13.2%. Under `CC(=O)NC1=NC(=O)/C(=C\c2ccc(-c3cc([N+](=O)[O-])ccc3C)o2)S1` stands -11.2%; under `CCCC(=O)c1ccc(N2CCN(C(=O)c3cccc(F)c3)CC2)c(F)c1`, -9%. Turning to `CSc1nnc(-c2cccc(NC(=S)NN)c2)o1`, the displacement worked out at 7.1%. Regarding `CCOC(=O)c1c(NC(C)=O)sc2c1CCN(CCc1ccccc1)C2`, the displacement stood at 2.4%.

As to `CCOC(=O)C1=C(C)C2C3C(=O)N(c4cc(C)ccc4C)C(=O)C3C1(C)C1C(=O)N(c3cc(C)ccc3C)C(=O)C21` (stereo not drawn), the displacement was -6.3%.

Take `COc1c(OC(C)=O)ccc(/C=N/NC(=O)COc2ccc(Cl)cc2Br)c1[N+](=O)[O-]`: the displacement is 1.1%. Under `CC(C)Oc1ccccc1C1Nc2ccccc2NC2=C1C(=O)CC(c1ccccc1)C2` (stereo not drawn) stands 7.3%. For the molecule `O=C(c1cccnc1)N(Cc1ccccc1)c1cccc([N+](=O)[O-])c1`, the displacement is -2.8%. For the molecule `O=C(Cc1ccc(-c2ccccc2)cc1)NNC(=O)c1ccccc1Cl`, the displacement was -11.5%. For `COc1ccc(C(=O)n2nc(C)c(Sc3ccccc3)c2C)cc1`, the displacement was 4.4%. `Cc1sc2nc(-c3ccc(C(C)(C)C)cc3)oc(=O)c2c1C`: the displacement was 7.5%. The result for `O=C(CSc1nc2ccccc2o1)Nc1nc2c(s1)CCCC2` reads 6.9%; that for `CC1=C(C#N)c2nc(N)c(C#N)c(C)c2/C1=C\c1ccco1`, 0%. Consider `CC(C)N(C(=O)c1ccc(C(N)=O)cc1)C(C)C`, for which the displacement came out at 5.7%. As to `CC(=O)Oc1cccc(N2C(=O)CCC2=O)c1`, the displacement is -1.9%. Take `O=C(CC(Nc1cccc(Cl)c1)c1ccc(F)cc1)c1ccccc1` (stereo not drawn): the displacement was 10.6%. On to `COc1ccc(S(=O)(=O)N2CCN(C3CC4CCC3C4)CC2)cc1` (stereo not drawn), for which the displacement is -1.9%. As to `NC(=O)c1c(NC(=O)c2ccccc2F)sc2c1CCCCCC2`, the displacement is -2.5%. As to `Cc1cc(Cl)ccc1OCC(=O)NC1CC(C)(C)NC(C)(C)C1`, the displacement is 11.8%.

Consider `CC1CCN(C(=O)Nc2ccccc2)CC1`, for which the displacement is -8.9%. `O=C(Nc1ccc(Cc2ccncc2)cc1)Nc1cccc2ccccc12`: the displacement was -14.3%.

With `COC(=O)c1ccccc1P(=O)(c1ccccc1)c1ccccc1`, the displacement amounted to 5.5%. The result for `Cc1ccc(C(=O)N2CCN(C(=O)CN3CCCC3)C2)cc1` reads 13.5%; that for `CCOC(=O)N1CCN(c2cc(N3CCC(C)CC3)c(F)cc2[N+](=O)[O-])CC1`, -2.7%; that for `O=C(O)CCCN1C(=O)C(=O)/C(=C(/O)c2ccccc2)C1c1ccc(Br)cc1` (stereo not drawn), -20.6%.

For the molecule `CCN(CC)C(=O)COc1ccc2oc(C)c(C(=O)OC(C)C)c2c1`, the displacement turned out to be 8.5%. The result for `N#CC1=C(N)OC2=C(C(=O)CCC2)C1c1ccc2c(c1)OCO2` (stereo not drawn) reads 11.4%. Consider `Cc1[nH]nc2c1C(c1cc(Br)cs1)C(C#N)=C(N)O2` (stereo not drawn), for which the displacement was -2.4%. For the molecule `S=C(Nc1ccccc1)NC1CCCC1`, the displacement amounted to 8.3%.

As for `COc1ccccc1N1CCN(C(=O)NC2CCCCC2)CC1`, the displacement came out at 2.7%. In the case of `O=C(Nc1cc(Cl)c(Cl)cc1Cl)c1ccccc1[N+](=O)[O-]`, the displacement is 4.6%. Turning to `CC(C)=CCCC(C)NCc1ccco1` (stereo not drawn), the displacement was -8.8%. Under `Cc1ccc(N(CC(=O)Nc2ccccc2Br)S(C)(=O)=O)cc1Cl` stands 15.8%; under `Clc1ccc(N2CCN(N=Cc3cccc(OCc4ccccc4)c3)CC2)cc1`, 11.5%; under `CC(C)(C)C1CCc2c(sc(NC(=O)c3ccc(F)cc3)c2C(N)=O)C1` (stereo not drawn), -0.6%. On to `Cc1nn(-c2ccccc2)c2sc(C(=O)N(C)c3ccccc3)cc12`, for which the displacement came to 8.2%. On to `O=C(CN1CCCCCC1)Nc1cccc2c1OCO2`, for which the displacement was -11.4%. Regarding `O=C(COc1ccccc1[N+](=O)[O-])Nc1cccc(-c2nc3ncccc3o2)c1`, the displacement is 7.2%.

As to `Cc1ccc(S(=O)(=O)N(CC(=O)NC2CCCC2)c2cccc(Cl)c2)cc1`, the displacement is -1.5%. Take `CN1CCc2c(sc3c2C(=O)NC(c2ccc(-c4ccccc4[N+](=O)[O-])o2)N3)C1` (stereo not drawn): the displacement worked out at 33%.

In the case of `CCCOC(=O)C1=C(C)NC2=C(C(=O)CC(C)(C)C2)C1c1ccc(N(C)C)cc1` (stereo not drawn), the displacement came out at 3.4%.

Consider `O=C(OCc1ccccc1)Sc1nnc(-c2ccc(Br)cc2)o1`, for which the displacement is 14%. Under `COc1ccc(N2C(=O)CC(Cc3ccc(Br)cc3)C2=O)cc1` (stereo not drawn) stands 15%; under `COc1ccc(OCC(=O)Nc2ccc(NC(=O)c3ccccc3)cc2)cc1`, 12.6%. Turning to `O=C(c1ccc(N2CCN(C(=O)c3ccccc3Br)CC2)cc1)c1cccc(F)c1`, the displacement amounted to 1%.

Take `NNC(=O)C1CCC(c2ccccc2)CC1` (stereo not drawn): the displacement was -6.6%. Under `COc1ccc(N2C(=O)c3cccc4c(NC(CO)(CO)CO)ccc(c34)C2=O)cc1` stands 43.6%; under `O=C(NNC1=C(C(=O)C(F)(F)F)CCC1)c1cccc(Cl)c1`, -19.1%; under `O=C(NC(=S)Nc1ccc(NC(=O)c2ccccc2)cc1)c1ccc(Cl)cc1`, 3.5%. For `O=C1c2cccc3c(Br)ccc(c23)C(=O)N1Nc1ccccc1`, the displacement is 8.2%. Consider `Cc1ccccc1C(=O)Nc1sc2c(c1C(=O)N1CCOCC1)CCCCC2`, for which the displacement was -5.4%. Turning to `CCc1cc(C(=O)N=Nc2c(O)[nH]c3ccc(Br)cc23)c2ccccc2n1`, the displacement is 12.8%. Take `COc1ccc(-c2noc(-c3ccco3)n2)cc1`: the displacement is 0.3%. Turning to `O=C1N/C(=N/N=C\c2ccco2)SC1Cc1ccc(SC(F)F)cc1` (stereo not drawn), the displacement was -20.8%.

For the molecule `Cc1ccc(OCC(=O)Nc2ccc(I)cc2Cl)c(C)c1`, the displacement is -18.3%.

On to `CCN(CC)CCSc1nc2sc3c(c2c(=O)n1-c1ccccc1)CC(C)(C)OC3`, for which the displacement was -5.6%. For `CCCCNc1cc(C)oc(=O)c1C(C)=O`, the displacement is -6.8%.

Turning to `Cc1ccc(C(=O)CSc2nc3ccccc3c(=O)n2-c2ccccc2)cc1`, the displacement turned out to be 11.8%. With `CC/C(C)=N/Nc1nc(-c2ccccc2)c(C)s1`, the displacement is -30.1%. For the molecule `COc1cccc(CN2CCN(C3CCCCC3C)CC2)c1OC` (stereo not drawn), the displacement amounted to 0.8%.

In the case of `O=C(c1ccc(Cl)cc1)C(Sc1nnnn1-c1ccccc1)c1ccc([N+](=O)[O-])cc1` (stereo not drawn), the displacement was 28.8%. The result for `COCCCNC(=O)COc1ccccc1C` reads 3.2%; that for `Fc1cnc(N2CCOCC2)nc1N1CCN(c2ccccc2)CC1`, 3.9%; that for `CC(C)(C)c1cc(C2=C(N3CCOCC3)C(=O)c3ccccc3C2=O)cc(C(C)(C)C)c1O`, 11.6%. As for `CC(C)(C)c1ccc(C(=O)N/C(=C/c2ccc(Br)cc2)C(=O)NN)cc1`, the displacement was -53.2%.

On to `COc1ccc(-c2nnc(-c3ccc(Cl)cc3)o2)cc1`, for which the displacement came out at 12.1%. The result for `CC1=NN(C(=N)c2ccccc2)C(C)(O)C1` (stereo not drawn) reads -25.3%; that for `Cc1cc(/C=N/NC(=O)CC#N)c(C)n1-c1cc(Cl)ccc1Cl`, -8.3%.

As to `O=C1C(=O)N(Cc2ccccc2)C(c2ccccc2)/C1=C(/O)c1ccccc1` (stereo not drawn), the displacement amounted to 0.2%. Regarding `C/C(=N/OCc1nc2c3c4c(sc3ncn2n1)CCCC4)c1ccc(C)cc1`, the displacement was 39.3%. Regarding `O=C1C2C3C=CC(CC3)C2C(=O)N1c1ccc(Br)cc1[N+](=O)[O-]` (stereo not drawn), the displacement turned out to be 16.1%.

In the case of `O=C1NC(=O)N(c2cccc(F)c2)C(=O)/C1=C/c1ccc(OCc2cccc(C(=O)O)c2)cc1`, the displacement is 9.2%. In the case of `c1ccc2c(N3CCCCCC3)nc(-c3ccncc3)nc2c1`, the displacement is -11.3%. On to `COc1ccc(/C=C/C(=O)Nc2ccc(NC(=O)c3ccco3)c(OC)c2)cc1`, for which the displacement was 9.7%. Under `CC(C)(C)c1ccc(OCC(=O)Nc2cccc(NC(=O)c3cccc(Cl)c3)c2)cc1` stands 3.2%. With `Cc1cc(OCC(=O)Nc2cccc(S(N)(=O)=O)c2)ccc1Cl`, the displacement stood at 0%. For the molecule `O=C(O)c1ccccc1-c1ccccc1C(=O)Nc1ccc(I)cc1`, the displacement is -9.1%. `COc1ccc(NC(=O)C2C(C(=O)O)C3C=CC2C32CC2)cc1` (stereo not drawn): the displacement was -0.9%.

For the molecule `COc1cccc2cc(-c3nc(-c4ccc(Cl)cc4Cl)cs3)c(=O)oc12`, the displacement was -11.5%. Consider `O=C(/C=C/c1ccccc1Cl)NC(c1ccccc1)c1ccccc1`, for which the displacement worked out at 2.1%.

As for `CCOC(=O)c1ccccc1NC(=O)CN(c1ccc(Br)cc1)S(C)(=O)=O`, the displacement was -5%. Turning to `COc1ccc(N2C(=O)/C(=C/c3ccc(-c4ccccc4[N+](=O)[O-])o3)SC2=S)cc1`, the displacement turned out to be 11.9%.
